# In the RNAGym collection of RNA variant scans (doi:10.7554/elife.90254):
# The source gives no read counts; variants with many changes may rest on few reads.
# B1: LINE1-mini (parent)
# chain: GGCAGAGCUCAACACAGCGUGGCAAAGUGGCUGUGGCUAGACUGCC
# Variants of: B1
# Assay: self-cleavage, relative activity (ratio to wild type); higher = more cleavage; in vitro, sequencing; the parent is a self-cleaving ribozyme
row,Variant,self-cleavage
1,U9G A11U C13A U28C,0.01
2,U9C G21U G36A U38A,0.02
3,U9G A12G G19A U32C,0.03
4,U9G C23G C31G U32A,0.01
5,U9C G21U C31G,0
6,U9C C18G G30C U38C,0
7,U9C C10A U34C C42U,0.04
8,U9G C13A G21A U32C,0.1
9,U9G A16G C37A C45A,0.32
10,U9C C15A C18A C23G U28A,0.03
11,U9G C31U G36C,0.06
12,U9C G21U A25G C46A,0
13,U9G A25C U28G,0.08
14,U9C G29A G33U C37A,0.01
15,U9G C18G G19A G21U,0.03
16,U9C G27U G36U,0.01
17,U9C G33A G35C,0.03
18,U9G A16C G21U G40C U43C,0.02
19,U9C G35U U43C C46U,0.31
20,U9C G33C G40U C45A,0.01
21,U9C C13U G22U U34C C45A,0.02
22,U9G A12C G29A,0.02
23,U9C C18G G35U C42G,0.02
24,U9C C23A C37G,0

row,Variant,self-cleavage
1,U9C C31A U34C,0.01
2,U9G A16U G27U,0.07
3,U9C C13U C15G G29U C42G G44C,0.01
4,U9G C15U A24G,0.18
5,U9C C10G A39C,0.02
6,U9G C13U U32C,0.06
7,U9G C10U G33C,0.04
8,U9G A12C A14G A24G U43A,0.02
9,U9G A16G C23U,0.12
10,U9C G17U G40U,0.04
11,U9G A12G G22U,0.07
12,U9G G17A C37A,0.02
13,U9G C15U G17A G21A C23A A39U,0.05
14,U9C G27A G33U G40U,0.02
15,U9G C15U C46A,0.01
16,U9C G17A G27A U34G G35U A39C,0.01
17,U9G C10G G33U A41C C45A,0
18,U9G G17C U28A,0.14
19,U9C G17C G22C G27U U32A G36C A39U,0.01
20,U9C C13U G17C U28A G36A C42A C46A,0.01
21,U9G C10A A24U,0
22,U9G C18A G22A,0.06
23,U9G C31U C42A,0.02
24,U9G C10U A14U G17A C31U A39G,0.03

row,Variant,self-cleavage
1,U9G C13A C23G C31A U32C G36A,0.04
2,U9C C13U C15U C46U,0.03
3,U9G A12U C13G A24G A39U G44A,0.05
4,U9C G27C G35C C37G,0.01
5,U9C C15G A25U G27A G30U A39G G44C,0.03
6,U9G A12U A26G,0
7,U9G C18A G33U,0.04
8,U9G C13A A16U G17C,0.02
9,U9C G30A U34G A41U,0.01
10,U9G A26G U43C G44C,0.02
11,U9G A16C C31U C37A,0.03
12,U9G A12G A14U,0
13,U9C C10G A12U U28G C37A U38G,0
14,U9G C18G C42G,0.01
15,U9G A12C C15A G17U U32C,0.04
16,U9G A12C G22C,0
17,U9G A11G A24U G35A G40U,0.06
18,U9G A39G U43A,0.03
19,U9G A25C G27A G36C U43A G44C,0.01
20,U9C G36A U38A A41U,0.1
21,U9G A16U A26U A41C,0.01
22,U9G A11C C37U C42A C45U,0
23,U9C C18G C46U,0.02
24,U9C U28C C46G,0.02

row,Variant,self-cleavage
1,U9G C18A C42G,0.02
2,U9G A11C C31A U34C,0
3,U9G A14G C18U,0
4,U9C G19C G44A,0.02
5,U9G C10A C18G U20G C31G,0
6,U9G A25C C31A C37A,0.01
7,U9G C15A G27C,0.07
8,U9G A12U G19U G33U C45A,0
9,U9C U28G G40U,0.02
10,U9G C15A A26C,0.23
11,U9C G21C G27A C45U,0.03
12,U9G C15U C18A G19A G21A,0.25
13,U9G C31U C42U C45U,0
14,U9C C15A C31A,0.01
15,U9C C15G A25G,0.08
16,U9C C13U U20A G36A,0
17,U9G C10U G17U,0.07
18,U9G C10U G17A,0.23
19,U9G A14U U20A,0.04
20,U9C G21A G27A G40U,0.06
21,U9G C13G A14C C23U,0.1
22,U9C G36U G44U,0.01
23,U9G C10G U20C A41C C42A C45U,0
24,U9C G19U U28C G33U,0.02

row,Variant,self-cleavage
1,U9C U20A G27U,0.02
2,U9G A12C U34G,0.03
3,U9C G22U C23A C45U,0.09
4,U9C U34A G36C A39G,0.04
5,U9C G22A A26U,0.05
6,U9C G22U U34A,0.03
7,U9C C13A G33C,0.02
8,U9G A14U C15A U20G C37G,0.11
9,U9G C15A A26U C37U G44U,0.09
10,U9G C23A G27A G29C C37G,0
11,U9G C13G C18A,0.07
12,U9C C15U G22C C23G A26G C46A,0.01
13,U9C G21C G22A G29C U34G G35A,0.01
14,U9G C13U U20C G21A A25G,0.09
15,U9C C23U G33A C42A C45A,0.01
16,U9C C18A U20G A24C C37U,0.02
17,U9C C10G C37U C46A,0.01
18,U9C C18U U28C G36C,0
19,U9G A11U A16U G17A,0
20,U9C C13A A24G,0.02
21,U9G C15G G29U G40U,0
22,U9C G27A U38G G40C C45G,0
23,U9G A14U C18U,0.18
24,U9C C18U G40U,0.02

row,Variant,self-cleavage
1,U9G C15A G22A,0.1
2,U9C G35U U38C,0.05
3,U9G C31U U32A,0.03
4,U9G A12C A24C U34C G36U U38G,0.01
5,U9G A11G G27U C46A,0.03
6,U9G C15G C23A U32A A41G G44C,0.01
7,U9G A11U C31A,0.03
8,U9G A16U C23A G27U A39G,0.02
9,U9C G19U C31A,0.02
10,U9G G17C G19C U34A,0.03
11,U9G A14C C31A G33A A41C C45U,0.03
12,U9G A11C U32G U38A,0
13,U9G C18A G33U A39C,0.01
14,U9G A11U C42U G44A,0.05
15,U9C C23G A25C U34A G35A,0.01
16,U9C C10U G36U,0.07
17,U9G C23A G35A C37A,0.18
18,U9C C18G G29U,0.04
19,U9G C10G G27A C45U C46A,0.01
20,U9G A11C G17C C42A,0.02
21,U9C C13G U34C,0.02
22,U9G A12U A24C A41G,0.03
23,U9G C31A U34C,0.02
24,U9C G17U G29A C37U,0.02

row,Variant,self-cleavage
1,U9C G35A U38A,0.02
2,U9G C10U G19C G29U,0.02
3,U9G A11U C37G C42A,0
4,U9C C13U C42A,0.02
5,U9G C13A A24G,0.05
6,U9C C18A G33U,0.02
7,U9G A12C U32A U34C G40U,0.01
8,U9C C31A G40U A41C,0.01
9,U9C G21U A25C U32A,0.01
10,U9G A16U C45A,0.01
11,U9C C18A A25C,0.01
12,U9G A16C G17C A24C,0.09
13,U9G C13G C37A,0.17
14,U9G C13G C37G,0.06
15,U9G C10A U20G G30A C31A G40C,0.01
16,U9C G29A C45G,0.04
17,U9C U28A C45G,0.02
18,U9C C13G U20C A25G U32G C46G,0.02
19,U9C C18A G19U G22U,0.02
20,U9G A12U G17U G21C A24U U32A A41U,0.01
21,U9C G17C C23U,0.02
22,U9C C10A U28C,0.08
23,U9C C13G G17A G29U,0.03
